# Source: the supplement of paper PMC3334620
# In all, about 33,000 sequences were measured (“E-score (-0.5 to 0.5)”: median about -0.035, highest 2% from about 0.35 on). The list shows a part of the results.
# Target: T1, Pdr3 (UniProt P33200)
# T1 sequence: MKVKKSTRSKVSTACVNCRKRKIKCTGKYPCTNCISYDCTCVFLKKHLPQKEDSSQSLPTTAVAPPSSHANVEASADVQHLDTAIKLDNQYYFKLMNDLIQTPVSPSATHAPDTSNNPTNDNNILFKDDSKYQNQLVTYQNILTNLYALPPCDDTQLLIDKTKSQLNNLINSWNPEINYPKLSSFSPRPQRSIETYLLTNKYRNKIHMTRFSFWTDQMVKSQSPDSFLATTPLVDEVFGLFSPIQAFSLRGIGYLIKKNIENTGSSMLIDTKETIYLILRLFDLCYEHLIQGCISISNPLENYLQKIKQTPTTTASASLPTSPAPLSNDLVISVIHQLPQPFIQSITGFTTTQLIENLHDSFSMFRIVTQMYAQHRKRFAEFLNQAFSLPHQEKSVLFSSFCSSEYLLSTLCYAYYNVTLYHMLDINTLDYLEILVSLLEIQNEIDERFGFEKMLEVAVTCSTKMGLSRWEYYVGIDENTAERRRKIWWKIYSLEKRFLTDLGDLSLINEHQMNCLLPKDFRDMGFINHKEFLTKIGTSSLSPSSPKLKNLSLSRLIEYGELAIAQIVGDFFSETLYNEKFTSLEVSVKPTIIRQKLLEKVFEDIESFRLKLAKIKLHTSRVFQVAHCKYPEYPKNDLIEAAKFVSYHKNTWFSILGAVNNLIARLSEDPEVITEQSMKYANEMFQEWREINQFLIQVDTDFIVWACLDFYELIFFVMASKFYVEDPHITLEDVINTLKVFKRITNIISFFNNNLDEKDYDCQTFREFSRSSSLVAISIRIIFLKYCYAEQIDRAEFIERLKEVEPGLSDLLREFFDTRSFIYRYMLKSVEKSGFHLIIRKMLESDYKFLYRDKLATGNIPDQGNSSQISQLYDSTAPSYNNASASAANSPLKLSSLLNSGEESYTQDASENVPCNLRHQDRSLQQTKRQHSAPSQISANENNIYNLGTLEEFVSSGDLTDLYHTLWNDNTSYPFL
# Assay: PBM E-score (8-mer binding enrichment) (E-score (-0.5 to 0.5)); higher = stronger / more preferred TF binding; most listed sequences are background and not binding sites
# Conditions: protein concentration: 200 nM; construct: GST-full length
# Description: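 Universal 'all 10-mer' protein binding microarrays (Agilent AMADID 015681) probed with GST-tagged S. cerevisiae TFs (full-length or DBD) made by in vitro transcription/translation (PURExpress), about 100-200 nM. Bound TF was detected with fluorescent anti-GST. Each ungapped 8-mer (which stands for itself and its reverse complement) is scored by the PBM enrichment score (E-score), a modified Wilcoxon-Mann-Whitney statistic from -0.5 to +0.5, computed with the Universal PBM Analysis Suite. Scale: above 0.35 generally sequence-specific binding.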
row,Sequence,PBM E-score
1,ATTCTGGA,-0.00551
2,CGAGGAAC,0.313
3,AGAAATGC,-0.0246
4,ACTATTAA,0.0378
5,AAGCAGCA,-0.123
6,ATTAGTCA,0.0506
7,AATATCGG,0.255
8,GTTGCCAA,-0.00919
9,CGGTCTGA,0.183
10,AATCGCAG,0.042
11,CGTGTACC,-0.0225
12,CACATACG,-0.233
13,CAGTTGGC,-0.0838
14,ACGCGATA,-0.0735
15,GGCCATTA,0.0961
16,ATTGGATG,-0.107
17,AGGTCTTC,-0.195
18,GATCTTTA,-0.0241
19,GACCACCA,0.0532
20,AATGGAGT,-0.0147
21,ACCTAGCT,-0.198
22,AAAATCAT,-0.0443
23,ATGTCCTG,0.0925
24,TCAGACAA,-0.0268
25,CAGATAAA,0.0639

row,Sequence,PBM E-score
1,GGGCGATA,0.0717
2,GTGCCCCA,-0.177
3,AATTTCTA,-0.0112
4,AAACCCGG,0.401
5,GGGTGACC,0.109
6,CCTGGGAG,-0.0198
7,AAGGGCTA,-0.173
8,CGAGGATC,0.115
9,CGAACAGA,0.137
10,ACCGACAT,0.0268
11,GTCGCGAA,0.0709
12,ACCAAACC,-0.0215
13,TATCCGAA,0.307
14,GAGAGCCA,-0.0735
15,CCGGGTTC,0.411
16,CCAGGCTC,-0.111
17,GCCAGGTA,-0.0481
18,AAGATCAC,-0.0576
19,AACGTTAC,-0.183
20,AACTATAC,0.00568
21,GCGATGCA,-0.0787
22,GAAGATCA,-0.0699
23,AGTTCATC,0.0424
24,AAGGATGT,-0.0876
25,GGCGGGTA,0.164

row,Sequence,PBM E-score
1,CACCGTTA,-0.0208
2,AGGCTAAA,-0.297
3,CCGGCAAG,0.241
4,GTCTATGA,-0.0893
5,AAATATTG,0.11
6,AAGGATCC,0.12
7,AATGATTA,-0.0149
8,GGCGACAC,0.0465
9,CGTCTCGA,0.0701
10,GACATTCC,0.118
11,AGGCGCTA,-0.0664
12,CCGCCCAC,0.295
13,CACTCATG,-0.257
14,ACGCACAG,0.0118
15,CTTGCACC,0.114
16,CAAAACAA,-0.224
17,ACGATGCC,-0.133
18,ATCAACAA,0.0138
19,CTAAAGCC,-0.397
20,ATAAGTTG,0.0184
21,ACGACGTA,-0.153
22,ATACGGTG,-0.0863
23,AACTACCT,0.0545
24,CCGGTAAC,0.183
25,GCGCAACA,0.0707

row,Sequence,PBM E-score
1,ATGAAATG,0.0155
2,GGCTGAAC,0.149
3,GCGTCTTA,-0.253
4,CCGACACC,0.00717
5,AGGAAGTG,-0.0864
6,GTACGTGA,-0.0968
7,GAGAGGCC,0.00827
8,AATTGTGT,-0.103
9,GGTTGATA,0.13
10,CGCGCTTA,0.138
11,CATTTACA,-0.147
12,CTAGTTTA,-0.243
13,AGGACGAG,-0.297
14,ACTCATAT,-0.105
15,AAAGTGGA,-0.237
16,CGTGTTAG,0.0767
17,GCATGTTA,0.066
18,GAAAGGTC,0.075
19,ACTTGACG,-0.135
20,ACCCTCTG,-0.182
21,CTTTGCGA,0.0333
22,AAGGCCTA,-0.231
23,AACTCAAT,-0.102
24,AACAATGG,0.0142
25,GCGAATAC,-0.00616

row,Sequence,PBM E-score
1,CGGTACCC,-0.0572
2,AACTGGCA,-0.0302
3,CCGCATGC,0.12
4,CCCAGCAG,0.0135
5,ATCTCTAG,-0.107
6,ATACTTTA,-0.121
7,CCGTCCCC,0.166
8,CTGCATAC,0.159
9,TAGACAAA,-0.168
10,AATGTTCG,0.0441
11,CCAGGCCA,-0.145
12,GCCATTTA,-0.0648
13,CAGCATCA,-0.134
14,TATTTTGA,-0.245
15,CAAAGGCA,-0.0181
16,TCGTCCAA,-0.0781
17,ATGGGAAT,-0.0684
18,GCATGCCA,0.0312
19,CTGTTCAA,-0.104
20,CACGCTTC,-0.136
21,CCCATTTC,0.0232
22,GTGCGCTA,-0.128
23,AAATAGCT,-0.0782
24,AAACGACT,-0.173
25,CTATCATA,0.0212

row,Sequence,PBM E-score
1,ACTATACT,0.0302
2,TTCCCCAA,-0.0249
3,CAAGTTAA,-0.157
4,ACGTTCGA,-0.24
5,AAAATGTA,-0.031
6,ATGACCAG,-0.131
7,AGATGAAC,0.0454
8,CTTGATTA,-0.0948
9,CTATATCA,-0.0438
10,GGTGGACA,0.131
11,AAATTCGG,0.186
12,ATAGAGTG,-0.0235
13,GCTAGAGA,-0.243
14,AAAATAGG,0.103
15,CCGGCGCC,0.37
16,GAGATGAA,0.0286
17,GAAAGACC,-0.0704
18,CGACTCTC,-0.0502
19,ACGGTTCG,0.0444
20,CTGTGTAA,-0.154
21,TAGGGAAA,-0.15
22,AATCATAT,0.0312
23,CAGGATAC,-0.0972
24,CTTTCATA,-0.00415
25,AAGCCTCC,-0.148

row,Sequence,PBM E-score
1,GTGACAAC,0.0198
2,CCCAGGGG,-0.115
3,ACAAGACT,-0.206
4,GGTAGCCA,-0.0883
5,AGAGCAGG,-0.0462
6,TATCGAGA,-0.0727
7,CCCGCTCC,0.059
8,CAGGCACG,0.106
9,AGATTGGC,-0.0973
10,AAGGCCGC,0.067
11,GGTTGCGA,0.0755
12,CGGGGTTA,0.304
13,AAGTTGCG,-0.0655
14,AATGTTGC,-0.107
15,ATAGCAAT,-0.0251
16,ATGCTAAT,-0.058
17,CATTAAAA,0.0238
18,CGTGATGA,-0.199
19,GAGCTTAC,-0.111
20,GGAGGCCC,-0.098
21,CGCCGGGC,0.308
22,AAGTCGCT,-0.211
23,CGGCTCAA,0.0984
24,TCACCTCA,-0.144
25,TATTGTAA,-0.198

row,Sequence,PBM E-score
1,ATTGGCTG,-0.202
2,GGATTCAC,0.0237
3,AGGCCTCC,-0.163
4,GCTAACCA,-0.145
5,AGCCCTAG,-0.182
6,CTGACCAC,-0.0502
7,GCCAAGAC,-0.256
8,ATTCGCCA,0.064
9,CTTCGAGC,0.111
10,AAAATCTC,-0.0559
11,ATCTATAA,-0.0823
12,AAAGCATA,-0.147
13,GGGCTCCA,-0.123
14,CATATTCC,0.211
15,CAGGTACA,-0.112
16,AACTACAC,-0.155
17,CCGCCAAA,0.237
18,CCACCCAG,-0.09
19,TACACAAA,0.0314
20,GCTCTTAA,-0.108
21,GGGGTAGA,-0.0242
22,CCTGTGAA,-0.0903
23,GTATGGAA,-0.0359
24,GATAGTCA,-0.141
25,AATAGCTA,-0.034

row,Sequence,PBM E-score
1,GCGGATAA,0.342
2,AACTCAGT,-0.149
3,GACCAAAA,0.0995
4,CCCGGGGC,0.338
5,ATGTACAC,-0.247
6,GAACCATC,0.11
7,CACGCGGA,0.38
8,CCCTGACG,0.118
9,ACGGGAAT,0.251
10,CTATTGTC,-0.0428
11,ACCAAGTA,-0.0735
12,TCCTCTCA,-0.221
13,GATGGAAA,0.0146
14,GTTGTGAA,-0.142
15,CCGGATAA,0.396
16,GGGTTCAA,-0.0922
17,ATTTTTCG,0.111
18,CTCTCCCA,-0.147
19,GTTGGAGA,-0.0278
